Data taken from PubChem BioAssay AID602340 (Broad Institute, 2012).
Among all 330,000 compounds or so, about 2,600 (0.79%) were called active.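 Rule for the calls: active = mean ATP rescue above about 67%, or every replicate alone reaching that limit (limit read from the data, passing the limit was not always enough); inconclusive = no clear call, values can overlap the other calls; inactive = mean under the limit and some replicate under it.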 The inconclusive results got no clear call from the source.

Assay: suppressors of statin myotoxicity in C2C12 myotubes, primary screen, cell-based, single point, plate reader (AID 602340);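 note: myotubes were challenged with 10 µM simvastatin during compound exposure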
Conditions: C2C12 myotubes + simvastatin, ATP luminescence, 48 h; at 7.49 µM; hits give high values; scaled: DMSO 0, geranylgeraniol control 100

| Compound | rescue of ATP level |
| --- | --- |
| CCOC(=O)C1=C(C)N=c2s/c(=C\c3ccc(OCC(=O)O)c(OC)c3)c(=O)n2C1c1ccc(OC)cc1 (stereo unspecified) | inconclusive: -13% |
